Out of some 150,000 compounds screened, about 540 (0.36%) showed an effect of 50% or more. Some of the results follow.
Each molecule was assayed on Plasmodium falciparum (assay: Primary screen in NF54 nanoGlo assay, in single point, at 2uM, 72h; a lower Z score goes with more inhibition). Conditions: timepoint 72 hour.
Assay type: functional, Erythrocyte

Compound	% Inhibition [%]	Z score
CO[C@H]1CCN(C(=O)c2ccc3ncccc3c2)C1	-19	1.89
COCCc1noc(-c2cnc3nc(C)ccc3c2NCc2ccco2)n1	-18	2.21
Cn1ccnc(Nc2cccc(NC3CCCC3)c2)c1=O	-8	1.15
c1cncc(CN(Cc2ccc3c(c2)OCO3)Cc2ccc([C@@H]3CCCO3)s2)c1	-2	0.32
C[C@H]1CN(C)CCN1CC1CCN(C(=O)Nc2cccs2)CC1	-2	0.44
Cc1ccc(-c2noc(C3CCN(C(=O)OC(C)(C)C)CC3)n2)cc1C	30	-3.35
O=C(CCc1ccc2c(c1)CN(C(=O)c1ccco1)CCO2)N1CCOCC1	8	-0.97
CCOc1nccn2c(CNC(=O)c3c(F)cccc3F)nnc12	14	-1.78
Cc1ccc(CN2CCCn3nc(C(=O)NC4CCCCCC4)cc3C2=O)cc1	-4	0.79
Cc1cc(CNC(=O)Cc2cccnc2)ccc1N(C)C	-7	0.87
O=C(CCc1ccccc1)Nc1c(C(=O)c2ccc3c(c2)OCO3)oc2ccccc12	-1	0.17
Cn1nc(NC(=O)NC[C@@H]2CCC[C@H]2O)cc1OC(F)F	-5	0.63
C[C@H]1CCC(=O)N1c1cccc(NC(=O)c2cncs2)c1	-18	1.63
Cn1ccc(CNC(=O)N2CCC[C@]2(C)Cc2ccc(OC(F)(F)F)cc2)n1	-8	1.68
CC(C)c1ocnc1C(=O)NC[C@H]1[C@H](c2ccccc2)C1(F)F	-3	0.47
CC(=O)c1c[nH]c(C(=O)N2CCCN(C(=O)c3ccc(F)cc3)CC2)c1	-6	0.83
COC(=O)C[C@H]1CCCN(CC(=O)N(C)Cc2ccc(F)cc2)CC1	-5	0.93
CN(C)c1ccnc(NC(=O)Cc2ccc(O)cc2)c1	3	-0.53
O=C(NCCCCNc1ccccn1)c1ccc2c(c1)OCCO2	-9	1.57
O=C1CCN(c2ccnc(C(=O)NCc3ccc(F)cc3)c2)CCN1	6	-1.01
Cc1ccc(CN(C)C(=O)c2scnc2C)o1	-7	1.13

Compound	% Inhibition [%]	Z score
O=C(COc1ncccn1)NCCc1ccccc1	2	-0.38
Cc1ccc(C(=O)N[C@H]2CCCOc3c2ccc2ccccc32)c(=O)[nH]1	-11	1.39
O=C(Cc1ccncc1)N1CCC(N2CCc3ccccc3C2)CC1	-8	1.22
O=C(COc1ccc(F)cc1)N[C@H]1CCN(Cc2cscn2)C[C@@H]1O	-12	2.02
COCCCn1c(C)cc(C(=O)N2CCCn3nc(-c4cccc(F)c4)cc3C2)c1C	-7	0.61
CC(C)[C@H](Nc1nccc(C(F)(F)F)n1)C(N)=O	-5	0.79
O=C(Nc1ccc2[nH]c(=O)[nH]c2c1)c1cc2c(s1)CCCCC2	-10	0.92
CC(O)c1cccc(NC(=O)c2cnn3c2N[C@@H](c2ccccc2)C[C@H]3C(F)(F)F)c1 (stereo partly drawn)	-14	2.46
CCCCN(C(=O)Nc1nc2ccccc2s1)C1CC1	-5	0.64
Cc1cc(C(=O)N2CC[C@H](C(F)(F)F)C2)c(C)n1-c1ccon1	-2	0.24
CO[C@H]1COCC[C@@H]1NC(=O)C(C)(C)Oc1cc(C)ccc1C(C)C	-13	1.32
COc1cc(-n2cnnn2)ccc1NC(=O)c1cnc(C)cn1	5	-0.84
Cc1ccc(-c2nn(-c3ccccc3)cc2C(=O)N2CCCc3ccccc32)o1	-4	0.63
COc1cc2c(cc1OC)CN(C(=O)CN(C)CC(=O)Nc1ccc(C)cn1)CC2	-4	0.66
Cn1cncc1[C@H]1[C@H](NC(=O)Cn2cccn2)CCC(=O)N1C1CC1	-1	0.22
COc1cc2c(cc1OC)CN(C(=O)c1c[nH]c(=O)n(C)c1=O)CC2	4	-0.77
COC(=O)[C@@H]1CCCCN1Cc1nc(C(F)(F)F)cs1	7	-1.16
C#CCCC1(CCC(=O)N2CCOc3c(C)cc(C)cc32)N=N1	-12	1.44
O=S(=O)(NCCNc1ccc(Nc2ccncc2)nn1)c1ccccc1	6	-0.82
CCc1ccc(CNC(=O)c2cc3cn(C4CCCC4)cc3s2)cc1	-15	1.9
O=C(c1cc2ccccc2[nH]1)N1CC[C@H](Oc2cccnn2)C1	-19	2.13

Compound	% Inhibition [%]	Z score
COCC(=O)N1CCN(c2cc3c(nn2)CCCC3)CC1	-5	0.91
CCC(CC)C(=O)N1CCN(c2nc3cccnc3n(C)c2=O)CC1	-13	1.62
C[C@H](NS(C)(=O)=O)c1nnc(N2CCCC2)n1Cc1ccccc1	-5	0.86
Cc1ccc2c(c1)CCCN2C(=O)Cn1cnc2ccccc2c1=O	-5	0.7
N#CCCN(CCC#N)C(=O)c1cc(Cl)c[nH]1	-15	1.37
Cn1nccc1[C@@H]1CCCN1C(=O)c1cc2c(=O)[nH]cnc2cn1	-1	0.09
O=C(COC(=O)c1ccc(S(=O)(=O)N2CCCCC2)cc1)NCC1CCCCC1	-14	1.42
C[C@H]1CCCCN1C(=O)NCCc1cnoc1	0	0.01
CO[C@@]12CC[C@@H](O)C[C@@H]1N(C(=O)c1ccc(Cn3nnnc3C)cc1)CC2	5	-1.05
CCc1noc(CNC(=O)c2ccc(Cl)cn2)n1	3	-0.3
O=S(=O)(N1CCCCCC1)N1CCN(Cc2nncs2)CC1	-7	1.19
COc1cccc(C(=O)Nc2ccc3c(c2)N(C)S(=O)(=O)N3C)c1	-10	1.27
Brc1cncc(CNc2nnc(CC3CCCCC3)o2)c1	-10	1.9
Cc1nc(N2[C@@H]3CC[C@H]2CNC(=O)C3)c2c(C)nn(C)c2n1	-2	0.25
O=C(Cn1cccnc1=O)N1CCC[C@H](c2[nH]ncc2-c2ccc(F)cc2)C1	-11	1.45
Cc1ncsc1[C@H]1Nc2ccc(Cl)cc2C(=O)N1CC1CC1	-8	0.94
Cc1cc(Cl)ccc1N1C(=O)CN(S(=O)(=O)c2ccccc2)C[C@@]1(C)C(=O)NCCC(C)C	-8	1.06
O=C(O)c1ccccc1CN1CCC[C@H](NS(=O)(=O)c2cccc(F)c2)C1	0	0.03
CC(=O)NC(C)C(=O)N1CC(C)C(NC(=O)OC(C)(C)C)C1 (stereo not drawn)	24	-2.69
COc1cccc(OCCc2cc(C#N)ccn2)c1	-4	0.79
CC(C)C(=O)N1C[C@@H]2CN(C(=O)c3nccc4ccccc34)C[C@]2(CO)C1	13	-1.72

Compound	% Inhibition [%]	Z score
Cc1noc(C)c1C(=O)N(C)Cc1ccncc1	-15	2.81
CN(C)C(=O)N[C@H]1CCCN(C(=O)c2ccc3c(c2O)CCCC3)C1	5	-0.85
COc1ccc(C)cc1NC(=O)Cn1nc(Nc2ccc(F)cc2)c(S(=O)(=O)c2ccccc2)c1N	-19	2.46
CC(=O)N1C[C@H](O)C[C@@H]1C(=O)N1CCn2nc(C(C)(C)C)cc2C1	8	-1.21
C[C@]1(O)CCN(Cc2ccccc2OC(F)(F)F)C[C@@H]1O	3	-0.5
CCOc1cccc(-c2noc(Cn3c(=O)n(Cc4ccccc4)c(=O)c4sccc43)n2)c1	-14	1.89
Cc1ccc(C(=O)NCc2ccc(N3CCO[C@@H](C)C3)nc2)c(=O)[nH]1	-22	1.96
CCN(CCC#N)C(=O)CCc1cc(F)ccc1Br	-4	0.48
CCN1CCn2cc(C(=O)NCc3cccc(Br)c3)nc2C1	2	-0.31
O=C(CCc1cnccn1)NCc1cccnc1-n1cnc2ccccc21	4	-0.86
CC(C)[C@@H](CO)NS(=O)(=O)c1cc(Br)ccc1F	6	-0.79
CCS(=O)(=O)Nc1cc(C(=O)NCCc2ccncc2)c2c(c1)nc(-c1ccccc1)n2C	0	0.06
Cc1ccc(NC(=O)c2nc(-c3cn(-c4cccc(Cl)c4)nn3)no2)cc1	-1	0.17
Cc1nc2ccc(N3CCC[C@H](c4nc(-c5ccc(F)cc5)no4)C3)nn2n1	-4	0.58
O=C(NCc1ccc(N2CCOCC2)cc1)c1nnn2c1c(=O)[nH]c1ccccc12	-7	1.25
O=C(CC1CCOCC1)NCc1ccc(F)cc1	3	-0.6
Cc1cccc(NC(=O)[C@H]2CC(=O)N(C(C)C)C2)n1	-2	0.29
CC(C)Cc1nc(C(=O)Nc2cccc(F)c2)n(-c2ccccn2)n1	-4	0.79
CCc1ccc2nc(-c3cn(CC)c(=O)[nH]c3=O)[nH]c(=O)c2c1	25	-2.81
Cc1nc2ccc(NC(=O)CC3CC4CCC3C4)cc2s1 (stereo not drawn)	2	-0.43
COc1ccccc1-c1n[nH]c(C2CC2)c1NC(=O)C1CCCC1	1	-0.16
